Some of the results follow.
T1: UNK ZnF1-3 (human, UniProt Q9C0B0 31-174)
T1 sequence: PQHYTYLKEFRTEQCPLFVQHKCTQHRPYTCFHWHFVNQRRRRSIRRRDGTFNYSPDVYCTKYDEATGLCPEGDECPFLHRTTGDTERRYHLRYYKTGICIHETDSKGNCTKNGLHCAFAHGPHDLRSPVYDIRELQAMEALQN

B1: chr9:95013113:95013114:-_ENSG00000196305_ENST00000443024|hu_hu|hu_hu_hu_mus_False|18_28 (ssRNA)
RNA: GGGAGUUCUACAGUCCGACGAUCCUCAGUCAGAAAGGGCGUGUAAGGGGCCAUCAGUCUGCACAGAGAAAGCAGGACACUGAACAGUGUCUCCAGAGCCAUGACACAAUCCUCCAUCCCAUUUUCACCCUUUAACCUCCUCCUCAACAGAGGAUUGAGCAUCA
B2: chr5:34519336:34519337:-_ENSMUSG00000037235_ENSMUST00000042701|mus_hu|FALSE|FALSE (ssRNA)
RNA: GGGAGUUCUACAGUCCGACGAUCGGUGGUCAUUAAGCCCCUCACACGGCACCUGCCGAGGUUUGCAGCAAUGACGUUUAAUACUUCUGGAAUGAUUAGGAAUCUGAGAACAGACCGUGGGCGGCUAUGCUGACCAGGGCUCCGCAACAGAGGAUUGAGCAUCA
B3: chr5:135912371:135912372:-_ENSMUSG00000039959_ENSMUST00000060311|mus_hu|FALSE|FALSE (ssRNA)
RNA: GGGAGUUCUACAGUCCGACGAUCCAUGUUUUCUAGCUGUGCCUUCAAUCCACUGAUCUCUCUGUAUAGUCGCUCAAUUAAGUGGUCCUUCUCAUCCUUGUUCACACCAUUUUGACUGUUGAAAUUGAAGGGAUCACUGCUGAACAACAGAGGAUUGAGCAUCA
B4: chr1:163112212:163112213:-_ENSG00000143248_ENST00000313961|hu_hu|hu_hu_hu_mus_False|8_18 (ssRNA)
RNA: GGGAGUUCUACAGUCCGACGAUCUUUUAUUAUCAGUAAGAGUGAGUUACAUACUAGGCAAAGUAUUGGAUACAAUAAUCAGGAAACAAACACUAUUGGUCCAGAAUUUAAAACUUUUGGGAUAAAUGCUUACAAAUGGACUUACAACAGAGGAUUGAGCAUCA
B5: chr19:10649910:10649911:-_ENSMUSG00000024666_ENSMUST00000025568|mus_mus|FALSE|FALSE (ssRNA)
RNA: GGGAGUUCUACAGUCCGACGAUCCAUCUUCUGCCUGAUUUGUGGGACUCCCAAGGGUACAUUCCACAGUUCCGAAGAAAAUGACUACUGGUUUUCUCUCUGCCCAGAACUCCAGGAGAGAUGUUUAGUUUUUCCAAAUCGGAGCAACAGAGGAUUGAGCAUCA
B6: chr1:180251914:180251915:+_ENSMUSG00000026500_ENSMUST00000027781|mus_mus|FALSE|FALSE (ssRNA)
RNA: GGGAGUUCUACAGUCCGACGAUCGAUCCUAAUGAGCCAUAGAGUAUAGAUUCUCGAGCACAUGGAGUGUUCUCAACAUCUAAAAUACCUAGGAGCUUGAAGGGCUUUUUCUCCGUCUCGUGGGGCUCCGGGGCGGCCGCCAUGCAACAGAGGAUUGAGCAUCA
B7: chr2:150438701:150438702:-_ENSG00000168288_ENST00000303319|hu_hu|FALSE|FALSE (ssRNA)
RNA: GGGAGUUCUACAGUCCGACGAUCAUCCGAACCUGAUGAUCCUGCAGUCGAAAAGGCUUUGGGAUUGACAACCCUUUUAACUAAAGAGCAAAAUCCUGGGAGAUAGGAAACCAGUCUGGCUCUGUUACAAAGCACAUUGGCCAUCAACAGAGGAUUGAGCAUCA
B8: chr11:107358869:107358870:+_ENSMUSG00000020720_ENSMUST00000021063|mus_mus|FALSE|FALSE (ssRNA)
RNA: GGGAGUUCUACAGUCCGACGAUCUCUCUGGAAGUUGAUGACUCCAGCCAACCUGUCUACUUUAGCAAAGAUGGUCUUGUUAACGACUAGAUUCGAGAGGAAAGCCUCUGACUCAUCCACAGAGAGAUCCAGAAGUUGUGCCAUCAACAGAGGAUUGAGCAUCA
B9: chr2:62103349:62103350:-_ENSG00000115484_ENST00000544079|hu_mus|FALSE|FALSE (ssRNA)
RNA: GGGAGUUCUACAGUCCGACGAUCAAUAUAGGCUCUCUCCUCUCGAAGCACUCGAUCCAUCUGGGCAUAGUCAGAUACUACUAUUUGAUUAUCCAUAUCUGUUUUAGGAGCAGAUAAGCAAAACUGAAUAAGCCCAAUCUUAGCCAACAGAGGAUUGAGCAUCA
B10: chr3:130650941:130650942:+_ENSG00000017260_ENST00000359644|hu_mus|FALSE|FALSE (ssRNA)
RNA: GGGAGUUCUACAGUCCGACGAUCGAUAAGGGGAUUUUUAAACUGAGAAAUAUACUUCUUCCAUAAUGGUUCAUCUUCACUGAUAUCAAAUUCAUUCCAACCAUGGAAGGCUCGCCUAUGACUAACUUCAGAUUUGUUUAAGCCCAACAGAGGAUUGAGCAUCA
B11: chr4:148551591:148551592:-_ENSMUSG00000063077_ENSMUST00000060537|mus_hu|FALSE|FALSE (ssRNA)
RNA: GGGAGUUCUACAGUCCGACGAUCACCUGACAAAAUUAAAUAUCCCUGUAAAUUAGACAAUAAGCAGCAGGCAACAAAGUCUUUGCUUUGGAAUAUGUGCCAGGAAAAGUCAUCUUGUUUUUAGAUCUCAAGAGACAGUUCACACAACAGAGGAUUGAGCAUCA
B12: chr10:93459826:93459827:-_ENSMUSG00000036099_ENSMUST00000119818|mus_hu|motif|central (ssRNA)
RNA: GGGAGUUCUACAGUCCGACGAUCUCCCCAUACCAGCCAGGAAGACACAAUCCACCAAGUGGGAAGCAUAACGAGCAAGCGGAUGAAGGCAAAUAGCAUUGAGAGAUCCCAAAUAUUAGGGGUUGCCAGGGAGCAAAGUGUUGGCAACAGAGGAUUGAGCAUCA
B13: chr4:155193719:155193720:+_ENSMUSG00000029068_ENSMUST00000139066|mus_mus|FALSE|FALSE (ssRNA)
RNA: GGGAGUUCUACAGUCCGACGAUCAGACAAAAGCAACAAAACACUAAAAGUGGCAUCAAACUAAGUACACUUAAAAAUGCUAUAAUACUUUAGAUGAUAUGUAAGUACAAAACUUCACAUUUUUAGAAAAGUUAAAGGUCAUUUCAACAGAGGAUUGAGCAUCA
B14: chr14:102516957:102516958:+_ENSG00000197102_ENST00000360184|hu_mus|motif|central (ssRNA)
RNA: GGGAGUUCUACAGUCCGACGAUCCCAUCAACCCUUCCACACCGUUAAGGAUGAAUGAAGGUUAAAUAUUGGGAGUUUCCGGUUCCAGAAAGAGGACUGGAGAAAAGUCUAGCUUUACUCAGUGCACAGAACGGCAACUCCACGCAACAGAGGAUUGAGCAUCA
B15: chr2:48026839:48026840:+_ENSG00000116062_ENST00000540021|hu_hu|hu_hu_hu_mus_False|8_88 (ssRNA)
RNA: GGGAGUUCUACAGUCCGACGAUCAUAGUGAGCCACUAGCGUCCUAAAUCUCGAACAGUGGCGGUCAUCCGAAAACUGGCCGAUGAAAAACUUGCCCAGUGAAGUGUCCACAAAGCAAACACCAUACGCACGAGUAUGACCAGACAACAGAGGAUUGAGCAUCA
B16: chr8:121455507:121455508:-_ENSG00000172172_ENST00000306185|hu_hu|FALSE|FALSE (ssRNA)
RNA: GGGAGUUCUACAGUCCGACGAUCUGAAGUCUUAUAGAUGCCAUAGCAGCAAGUUUGCCAGGUGGCUGCAUUUUCCCAUCUAAGAGAUACCAUAUUCUAGCAAAAGUGGCCCAUUGCUGGGGCGCCCUAGAGAAACUCGACAUACAACAGAGGAUUGAGCAUCA
B17: chr2:120842415:120842416:+_ENSMUSG00000023572_ENSMUST00000060455|mus_hu|FALSE|FALSE (ssRNA)
RNA: GGGAGUUCUACAGUCCGACGAUCAACCAACAAUCUUUGGUAAUAGUGUCUCUUGCUAAAUAUAGAUAGGCACUCCCUUUCAAUCCAGCAAGCAUUCUAGCUCCAUUUUAAAAGCAGGUAUCAGAGCCUGACCAUGACGAUGAGCAACAGAGGAUUGAGCAUCA
B18: chr8:97196980:97196981:+_ENSMUSG00000031776_ENSMUST00000034228|mus_hu|FALSE|FALSE (ssRNA)
RNA: GGGAGUUCUACAGUCCGACGAUCCCUAUUGGGCUGGUGACAUCCAGAAUGAUCCCAUUCAUUGGCUGGAGGUAGGACCUAGUGCCGCAGAUUGUUCUGGGAAGCUGGCAGAGAAGAUGAUUUGCACAAUGAAGUCACCACUAACAACAGAGGAUUGAGCAUCA
B19: chr4:115894766:115894767:+_ENSMUSG00000028698_ENSMUST00000030464|mus_hu|mus_mus_mus_hu_True|8_8 (ssRNA)
RNA: GGGAGUUCUACAGUCCGACGAUCUUCCACACGGAAAUGUACUUCGGGUUUUCCAACGGCCAGUACCAGUCCGGCCAAACUACCCGAACAGGGUCCUCCCCCUCUCUCCUACAGAACACAACAAAAUAACAAAAUACUUUCAAGCAACAGAGGAUUGAGCAUCA
B20: chr4:144447494:144447495:+_ENSG00000153147_ENST00000283131|hu_hu|FALSE|FALSE (ssRNA)
RNA: GGGAGUUCUACAGUCCGACGAUCCCAGUUGUGUAAUGUAGACUUAGGAACCAAAACCAUAUGAGGCCCAGGAAUGUUUCUAUAAUGUUUCAUGUACCCAAGAAGAGAAAUUGUUUGAAGAGUCUUUCCUAGGCCCAUUUCAUCCAACAGAGGAUUGAGCAUCA
B21: chr6:117881578:117881579:-_ENSG00000047932_ENST00000052569|hu_mus|motif|central (ssRNA)
RNA: GGGAGUUCUACAGUCCGACGAUCCUUUAAUGUAGAAUAUGUCAUUUUUAUUUACAGGCUAAUUAAGAAUAUGAAACUCAACGGGAUAUAAUACAAUUAUCAUAAAUCCCCUUAUAUGUAAAUUAAUAUAUUUUUUGUUUUAAACAACAGAGGAUUGAGCAUCA
B22: chr7:40027299:40027300:+_ENSG00000065883_ENST00000340829|hu_hu|FALSE|FALSE (ssRNA)
RNA: GGGAGUUCUACAGUCCGACGAUCAUUCUUGUUCAAUUCAGCUGCCAGGCUACUCUUCAGAGUUAGUGUGCUAGGAGAAAUACUAGAAUGACGACUUCUGGAUCUAGACAAUCUGUGCCUGCUACGAGAUCUUGAAUGCCUAGACAACAGAGGAUUGAGCAUCA

Each binder was assayed against T1, UNK ZnF1-3 (assay: nsRBNS (natural sequence RNA bind-n-seq); RBNS binding buffer (assumed for nsRBNS): 25 mM Tris pH 7.5, 150 mM KCl, 3 mM MgCl2, 0.01% Triton X-100, 500 ug/ml BSA, 20 U/ml SUPERase-In, 4 C; UNK is unkempt and MSI1 is Musashi-1; names of the RNAs are library labels; protein concentration not given here; high values mean tight binding).

Row | Binder | binding signal
1 | B1 | 1.46 enrichment R
2 | B2 | 1.08 enrichment R
3 | B3 | 0.629 enrichment R
4 | B4 | 1.09 enrichment R
5 | B5 | 1.39 enrichment R
6 | B6 | 1.26 enrichment R
7 | B7 | 0.828 enrichment R
8 | B8 | 0.899 enrichment R
9 | B9 | 1.07 enrichment R
10 | B10 | 0.801 enrichment R
11 | B11 | 1.04 enrichment R
12 | B12 | 1.96 enrichment R
13 | B13 | 1.32 enrichment R
14 | B14 | 1.11 enrichment R
15 | B15 | 1.14 enrichment R
16 | B16 | 0.989 enrichment R
17 | B17 | 1.06 enrichment R
18 | B18 | 1.38 enrichment R
19 | B19 | 0.964 enrichment R
20 | B20 | 1.04 enrichment R
21 | B21 | 2.66 enrichment R
22 | B22 | 0.627 enrichment R

Source: PMC12136788
